Values marked as one replicate rest on one cluster of the flow cell; about a third of the high ones do not repeat.
Tested on: ATP
Assay: switch fluorescence ratio, 500 uM ATP over buffer (Cy3 cluster intensity, sum of 5 cycles each) (fold (ratio)); higher = stronger signal-on switching upon ATP binding; sequences stand for … in TCGTCGGCAGCGTCAGATGTGTATAAGAGACAGTTTTTTTTTTTTTTTTTTTTTTTTT…TC
Conditions: aptamer strand: ATP DNA aptamer (quencher-CACCTGGGGGAGTATTGCGGAGGAAGG + anchor), 100 nM annealed; ATP concentration: 500 uM; one replicate
How it was run: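 Exposure to 500 uM ATP lasted 15 min at 22 °C before imaging, and a selection-buffer image was taken beforehand, for Cy3-labelled switching-strand clusters on a modified Illumina MiSeq flow-cell annealed to 100 nM quencher-labelled ATP aptamer. Five buffer/ATP cycles were run with NaOH stripping and re-annealing between them. The fluorescence ratio per cluster is summed target-cycle over summed buffer-cycle Cy3 intensity, averaged per switch-domain sequence. Clusters outside 100-1000 RFU were excluded.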

| Sequence | switch fluorescence ratio |
| --- | --- |
| ACACGCCGTT | 1.09 |
| TTGTATCCTT | 1 |
| CACGGCGGGC | 0.958 |
| GAGATTTTGG | 0.987 |
| TGATCCCCGA | 1.01 |
| TTCTCCAATT | 1.06 |
| TTCCAGGGAG | 1.07 |
| GGGATTGAAC | 1.03 |
| CATTAAGGC | 1.01 |
| TCCACAGCCA | 2.36 |
| GGGTGGACGT | 1 |
| GAAGTCTATA | 0.999 |
| TAAGTGATAT | 0.964 |
| ACAGAACAAT | 1.11 |
| GCAATTGGAT | 0.977 |
| TGCGATATAT | 0.987 |
| CGAGTATGTA | 1.01 |
| GGCCCTGAAC | 1.06 |
| CTTGCCCTCG | 1.01 |
| TGATCTCCTT | 0.959 |
| AGCGCTGGGG | 0.994 |
| GATGTGCCAC | 1.03 |
| CGACGTAAGT | 1.2 |
| GTGTTTTGCC | 1.02 |
| TCGAGTAATT | 1.03 |
| CCGAGGACGG | 1.13 |

| Sequence | switch fluorescence ratio |
| --- | --- |
| CGTTCAACCG | 1.01 |
| AATATCACGT | 1.03 |
| GATGTCTAAT | 0.996 |
| TATTTAATCT | 0.993 |
| ACCTGCTAAA | 1.02 |
| TCCTTTGATT | 0.988 |
| GCCTAAGAGA | 0.979 |
| ACCCGTGCTT | 1.04 |
| ACTAATGGTA | 1.01 |
| ATCGGTTCAT | 1.03 |
| CGGGGGAATA | 1.02 |
| TTTTTAGG | 1.03 |
| TCTTACGTG | 0.968 |
| TATCTCGGT | 1.05 |
| AATCGGAACA | 0.963 |
| TGATCTAAGT | 0.995 |
| GTTTGTCGTC | 1.04 |
| ATAAGCGTTG | 0.983 |
| ATCTTAGACT | 0.974 |
| TGCTTAGGCT | 0.978 |
| GACTAAGCTA | 1.15 |
| GGATTAATTA | 1 |
| GCGTTATGTA | 0.98 |
| TTTCCCCTCC | 1.2 |
| ACTCGGCGGC | 1.68 |
| ATTCGAGACG | 1.06 |

| Sequence | switch fluorescence ratio |
| --- | --- |
| GAGTGTAGGA | 0.986 |
| ACACTTATGA | 1.07 |
| TTGCGCGTCC | 1.02 |
| GTGCTCTTTA | 1.03 |
| GCCTTTCGAG | 1.38 |
| GATCCGGACA | 1.01 |
| GCTATGCCAG | 0.991 |
| TGTGATTACG | 0.977 |
| CTATGTCGCT | 0.923 |
| CTTGGTGTAG | 1.01 |
| GAAAGGTGGT | 1 |
| TATTCGATCA | 0.992 |
| GATACATTG | 0.987 |
| CGTGAGCATC | 1.45 |
| CACCGGTGGA | 1.01 |
| CTAGCAGCAT | 1.28 |
| ATGCTTGGCT | 0.931 |
| TTGAGGGCGT | 0.997 |
| CTAATCTGGG | 0.981 |
| CGTGCCGCCG | 0.963 |
| TCTCATTCAA | 1.05 |
| TATAAATCGC | 0.963 |
| CAATATAGA | 0.991 |
| TTCAACGATC | 1.01 |
| GGATTGGAAG | 0.96 |
| AGGTTTCTAT | 1.04 |

| Sequence | switch fluorescence ratio |
| --- | --- |
| CTTTATGTCA | 0.962 |
| TACTTAGAGA | 1.08 |
| TTGCATGGAC | 0.993 |
| ACTAGTGCGC | 1.03 |
| AAGCGAAAAC | 1.1 |
| CACCGTAGCG | 1.15 |
| TCTACCTTAG | 1 |
| ATTACCGGTG | 1.06 |
| AATCCTAGGG | 0.952 |
| CTGTTCCGGT | 1.03 |
| AGGTAATATT | 1 |
| GTATAATTTA | 1.01 |
| ACGTTGCTAT | 1 |
| AAATGGATT | 1.02 |
| TGCCCGGGTG | 3.85 |
| TTAAAATAAG | 1.04 |
| AAAGTACAGC | 1.22 |
| TCTTTGTCAT | 0.995 |
| TGCGGGA | 1.05 |
| GGTCCCTATG | 0.988 |
| CGGGTTCTCC | 0.985 |
| TGCGCTACC | 1.17 |
| TGGAATCCAG | 0.981 |
| CGTACTTTTA | 0.979 |
| GCCCGCGTGA | 1.16 |
| CTGATAGGCG | 1.04 |

| Sequence | switch fluorescence ratio |
| --- | --- |
| AACTTTCTTC | 1.03 |
| CTCTAAGTAT | 1.04 |
| TATTTGCCA | 1.02 |
| CTCGGTGCCA | 0.965 |
| TAGTGGGTGC | 0.983 |
| TTGGTATCGC | 1.02 |
| CCACTCGTCA | 1.08 |
| CGTTTGCTCA | 1.03 |
| AATACCCAGG | 2.66 |
| GAGTTACTG | 1.13 |
| CGGTTTAGCC | 0.994 |
| GACAAACTGT | 1.12 |
| AGATGGACGG | 1.01 |
| GCGAAATGCG | 1.02 |
| AGAATCTTA | 0.98 |
| GCTTCTTGCA | 0.961 |
| CTGGGGCCAT | 1.06 |
| GATTAGTGAG | 0.961 |
| TGGACCCCTT | 1.04 |
| AACGAATTTG | 0.988 |
| GGTTAAAAAG | 0.971 |
| CGTGTCGCGA | 1.02 |
| AACAGAGGCG | 1.04 |
| CGATGCTCTT | 1.02 |
| TCGGCCCTAC | 1.61 |
| CATGTTGTTG | 0.977 |

| Sequence | switch fluorescence ratio |
| --- | --- |
| AAACGGGAGG | 1.01 |
| GCCCCGTG | 1.08 |
| TGAGAGCAGA | 0.993 |
| AGTACTAAAA | 0.993 |
| GTTCTTTTAG | 0.986 |
| ATTGTACCGA | 1.04 |
| CCGCGGATTT | 1.02 |
| CGAGGCGAAC | 2.72 |
| TAAATCATTA | 1.03 |
| ACATCTATTG | 0.984 |
| CTCGGCGATG | 1.52 |
| TTTAAGCTCC | 1.01 |
| AGCTCGCAAA | 1.33 |
| GAAGGCGTA | 1.06 |
| TTCTTTAGCC | 1.03 |
| GGTAGCAATG | 1.94 |
| CTATTGTATG | 0.978 |
| GTTGTCTGTG | 0.985 |
| CGCCTTTCG | 1 |
| CCAACTCTGG | 1.06 |
| AGCCTATCA | 1.03 |
| ACGTAGGGCT | 0.984 |
| CGGTGGGCGT | 1.02 |
| TTTTGATGT | 1.02 |

— the supplement of paper PMC10126150
